# Measurements taken from PubChem BioAssay (NCI).
# Several values for one entry are separate records, joined by “and”; a condition that tells them apart may be missing. Equal values may be shown once.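 Briefly, cells in 96-well plates were exposed to five compound concentrations for 48 h, and endpoints were estimated by linear interpolation. GI50 = concentration required for 50% inhibition of growth. At the TGI there is no net growth.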 Activity calls are given as the source filed them. Cut-off read from the data, not from the text of the source: active = GI50 below about 0.43 µM; inactive = the rest. Peptide text beside a SMILES is read from it.
# System: NCI-H322M lung
# Test: DTP human tumour cell line panel, 48 h
Structure (SMILES),GI50,TGI,outcome
O=C(NNC(=O)C1CCN(S(=O)(=O)c2ccc(-c3ccccc3)cc2)CC1)c1ccc(C(F)(F)F)cc1,> 50 µM,> 50 µM,
CSc1nc(-c2ccccc2)c(C#N)c(=O)[nH]1,,> 100 µM,
Cc1ccc(NC(=O)CC/C(CC(=O)C(C)(C)C)=N/Nc2nnc(C)n2N)cc1C,,> 100 µM,
O[C@H]1C=C2[C@H](C[C@@H]1O)CN1C[C@H]2c2cc3c(cc21)OCO3,11.1 µM,48.2 µM,
CN1CCN(C(=S)N(C(=O)c2cccs2)c2ccccc2)CC1,,> 100 µM,
CCCCN(CCCC)CC(O)c1ccc(OCc2ccccc2)c2ccccc12 (configuration not stated),11 µM,24 µM,
COC(=O)c1nc(-c2ccc(Cl)c(Cl)c2)nc2ccc(Cl)cc12,,> 100 µM,
C[C@]12CC[C@@H]3c4ccc(O)cc4CC[C@H]3[C@@H]1CC[C@@H]2OC(=O)CCC1CCCC1,,32 µM,
CC(C)(C)C1=NC(=S)SC2=NC(=O)C3(NN21)c1ccccc1-c1ccccc13,,> 10 µM,
CCC#CCCCCCCCCC(F)C(=O)O (configuration not stated),,> 100 µM,
COc1cc(Br)c(CC2NCCc3cc(OC)c(OC)cc32)cc1OC (configuration not stated),,> 100 µM,
O=C1C=CC(=O)N1n1c(Cc2ccccc2)n[nH]c1=O,,> 100 µM,
CN=C(NC#N)N(Cc1ccccc1)Cc1ccccc1,,> 100 µM,
O=[N+]([O-])c1ccc2nc3n(c2c1)C(c1c(F)cccc1F)SC3 (configuration not stated),,> 100 µM,
O=C1c2ccccc2C(=O)N1CCn1nc(-c2ccccc2)cc(-c2ccccc2)c1=O,,> 100 µM,
O=NN(CCCl)C(=O)NC1CCC(C(=O)O)CC1 (configuration not stated),,> 100 µM,
C[C@H](CCC(=O)O)[C@H]1CC[C@H]2[C@@H]3[C@@H](O)C[C@@H]4C[C@H](O)CC[C@]4(C)[C@H]3CC[C@]12C,,> 100 µM,
CC(C)OP(=O)(CCCCCCCCC/C=C/c1ccc2c(c1)OCCOCCOCCOCCO2)OC(C)C,,11 µM,
C=C(C)[C@@H]1CC[C@]2(COC(C)=O)CC[C@]3(C)[C@H](CC[C@@H]4[C@@]5(C)CCCN(C(C)=O)C(C)(C)[C@@H]5CC[C@]43C)[C@@H]12,1.63 µM,3 µM,
Cc1[nH]c2ncn(Nc3ccccc3)c(=N)c2c1Cc1ccccc1,,> 100 µM,
COC(=O)c1sc(=O)n(-c2ccccc2)c1SCc1ccccc1,,> 100 µM,
CC(=O)O[C@H]1CC2C(C3CC[C@H](C(C)CCC(N)=O)[C@]31C)[C@H](OC(C)=O)C[C@@H]1CC3(CC[C@]21C)OOC1(CCC(C)CC1)OO3 (some centres not stated),,22.7 µM and 16.1 µM,
CCOP(=O)(/C=C/n1ccc(=O)[nH]c1=O)OCC,,> 100 µM,
CCN(CC)c1ncnc2c1ncn2CCNC(CO)(CO)CO,,> 100 µM,

Structure (SMILES),GI50,TGI,outcome
O=C1Nc2ccccc2S/C1=C\c1ccc(C(F)(F)F)cc1,,> 100 µM,
CC[C@@]1(O)C(=O)OCc2c1cc1n(c2=O)Cc2cc3c([N+](=O)[O-])c(OC)ccc3nc2-1,0.345 µM,6.16 µM,
Clc1cccc(Cl)c1C(Nc1nncs1)Nc1nncs1,,81.8 µM,
CC(=O)NC(C)(C)C1CC=C(C)/C(=N\O)C1 (configuration not stated),,> 100 µM,
O=C(O)CCC(=O)C(=O)O,,> 100 µM,
CC1(C)[C@@H](Cn2nnc3c(N)ncnc32)CC[C@@]1(C)CO,,> 100 µM,
Cn1cnc([N+](=O)[O-])c1Sc1nc2ncccc2[nH]1,,> 100 µM,
C[C@H](N)C(O)C/C=C\C/C=C\C/C=C\C/C=C\C/C=C\C/C=C\CCCCCCC(O)[C@H](C)N (some centres not stated),,,inactive
Cc1ccc2c(NCCCN(C)C)c3c(C)nn(C)c3nc2c1,3.63 µM,20.3 µM,
COc1cc(-c2cncn2-c2ccc(-c3nc4ccc(F)cc4s3)cc2)ccc1F,36.3 µM,> 100 µM,
O=C1c2cc3c(cc2[C@@H]2NC4CCCC14O2)OCO3 (some centres not stated),,> 100 µM,
CC1OC(=O)C2CC3CCCCC3C(/C=C/C3CCCC(C)N3C)C12 (configuration not stated),,> 100 µM,
CCN(CC)CCn1c(N)c(-c2nc3ccccc3n2C)c2nc(C#N)c(C#N)nc21,1.01 µM,6.17 µM,
CC(=O)OCC1OC(NC(=S)CCSc2nc3ccccc3c(=O)n2-c2ccccc2)C(OC(C)=O)C(OC(C)=O)C1OC(C)=O (configuration not stated),,> 100 µM,
CN(C)c1ccc(C=NC23CC4CC(CC(C4)C2)C3)cc1,,> 100 µM,
COc1cccc(-n2ncc3c(N/N=C/c4ccc(F)cc4)ncnc32)c1,> 21.2 µM,> 25 µM,
Cc1cccc(NC(=S)Nc2ccc(Cl)cc2)n1,,> 100 µM,
CCCCCCCCCCCCCCCCNC(=O)OC(C)C,2.05 µM,5.49 µM,
Cc1ccc(NC(=S)C#N)cc1Cl,,> 100 µM,
Cc1ccc(NS(=O)(=O)c2ccc(-c3cnc(C4CC4)o3)cc2)cc1C,1.5 µM,> 84.8 µM,
O=C1c2ccc3c4c(ccc(c24)C(=O)N1CCCNCc1ccccc1F)C(=O)N(CCCNCc1ccccc1F)C3=O,0.221 µM,0.65 µM,
CCOC(=O)Cn1c(=O)n(C)c(=O)c2[nH]cnc21,,> 100 µM,
O=C(O)C1(C(=O)O)CC1,,> 100 µM,
NS(=O)(=O)N(c1cc(C(F)(F)F)cc(C(F)(F)F)c1)C1CCN(Cc2ccc(C(F)(F)F)cc2)CC1,7.04 µM,16.8 µM,

Structure (SMILES),GI50,TGI,outcome
CCOC(=O)NC(=O)c1cn(-c2ccc(CCOC(=O)NCCCCCCNC(=O)OCCc3ccc(-n4c(=O)[nH]cc(C(=O)NC(=O)OCC)c4=O)cc3)cc2)c(=O)[nH]c1=O,,> 100 µM,
COc1ccc(CN2CCc3c(Sc4ccccc4)nc(N)nc3C2=O)c(OC)c1,4.02 µM,16.9 µM,
COC(=O)c1c2c(c(C)[n+]([O-])c1C)C(=O)C(NCc1cccc(Cl)c1)=CC2=O,1.35 µM,4.73 µM,
O=c1cc(NNc2ccc3ccccc3c2)[nH]c(=S)[nH]1,,> 100 µM,
COC(=O)CCC(C)[C@H]1CCC2C3C(C[C@H](OC(C)=O)[C@@]21C)[C@@]1(C)CCC2(C[C@H]1C[C@H]3OC(C)=O)OOC1(CCCCCCC1)OO2 (some centres not stated),,> 100 µM,
COC(=O)Cc1ccc(Oc2nc3ccccc3nc2-c2cccs2)cc1,,> 100 µM,
O=c1[nH]c2cc(Cl)ccc2nc1/C(=N/Nc1ccccc1)C(O)c1ccco1 (configuration not stated),,> 100 µM,
COC(=O)C1CCC(=O)C(Sc2ccccc2)C1 (configuration not stated),,> 100 µM,
CC1CCC(C(C)C2C(O)CC3C4CC=C5CC(O)CCC5(C)C4CCC32C)NC1 (configuration not stated),,82.1 µM,
N#CCCN(CCNc1ccccc1)C(=O)Nc1ccc(NC(=O)N(CCC#N)CCNc2ccccc2)cc1,,> 100 µM,
O=CC(NC(=O)N(CCCl)N=O)C(O)C(O)C(O)CO (configuration not stated),328 µM,625 µM and > 1250 µM,
COc1ccc(-c2cnoc2-c2ccc(OC)cc2O)cc1,15.1 µM,> 100 µM,
NCC(=O)NC1(C(=O)O)CCCC1 (HELM PEPTIDE1{G.[O=C(O)C1(N[*:1])CCCC1]}$$$$V2.0),,> 100 µM,
COc1ccc(N(CC(=O)O)S(=O)(=O)c2ccccc2)cc1,,> 100 µM,
CCCCSSC(=S)N(CC)CC,> 100 µM,> 100 µM,
CN1CN(c2ccccc2)C2(CCN(Cc3nc4ccccc4s3)CC2)C1=O,,40.3 µM,
COC(=O)c1cc2cc(-c3ccc(OC)cc3)cnc2[nH]1,4.73 µM,48 µM,
O=C(Cc1ccc(OCc2cccc(Cl)c2)cc1)NO,,> 100 µM,
O=C(CSCC(=O)N/N=C/c1cccc(C(F)(F)F)c1)N/N=C/c1cccc(C(F)(F)F)c1,,> 100 µM,
COc1cc(C(=O)C(CO)Oc2ccccc2OC)ccc1O (configuration not stated),,> 100 µM,
O=S(=O)(O)c1ccc2c(N=Nc3cccc4ccccc34)c(O)c(S(=O)(=O)O)cc2c1,,> 100 µM,
C=C1[C@@H](OC(C)=O)[C@H]2[C@@H](OC(C)=O)[C@@](C)(OC(C)=O)C[C@]2(OC(C)=O)C(=O)[C@@H](C)/C=C/C(C)(C)C(=O)C[C@H]1OC(C)=O,,> 100 µM,
O=C(Nc1cccc(-n2cc(-c3ccncc3)c(-c3ccc(Cl)c(O)c3)n2)c1)Nc1cccc(C(F)(F)F)c1,6.41 µM,> 32.5 µM,
COc1ccc(-c2cc3c(OC)c(OC)c(OC)cc3oc2=O)cc1,6.87 µM,> 100 µM,

Structure (SMILES),GI50,TGI,outcome
C=C1C(=O)O[C@H]2[C@H]1CC/C(COC(=O)NCc1ccc(Cn3c(=O)sn(CCI)c3=O)cc1)=C\CC[C@@]1(C)O[C@@H]21,15.1 µM,28.4 µM,
CC(SC(=S)Nc1cccc(F)c1)C(=O)O (configuration not stated),,98.6 µM,
C=C(C)C[C@H](Sc1nc2ccccc2s1)[C@H](C)O,,> 100 µM,
Oc1ccc(/C=C/c2ccc(O)cc2)cc1,11.7 µM,> 100 µM,
Brc1sc(Br)c2c1[C@H](Br)C[C@@H]2Br,,> 100 µM,
C=C(C)[C@@H]1C/C=C(\COC(=O)[C@H](OC(C)=O)C(NC(=O)c2ccccc2)c2ccccc2)CC[C@H]2O[C@]2(C)CC/C=C(\C)CC1 (some centres not stated),46.2 µM,> 50 µM,
CC1(C)N([O-])[N+](=O)C1(C)Br (configuration not stated),,> 100 µM,
CO[C@@H](C(=O)N1Cc2[nH]nc(NC(=O)c3ccc(N4CCN(C)CC4)cc3)c2C1)c1ccccc1,2.56 µM and 1.88 µM,> 100 µM,
Cc1cc(I)cc(CN(C)CCN(C)C)c1O,48.4 µM,> 100 µM,
C[C@]12CCc3nonc3C1CC[C@@H]1C2CC[C@]2(C)C(=O)/C(=N\O)CC12 (some centres not stated),,> 100 µM,
COC(=O)C12C3C4C1C1C2C3C41C(=O)O (configuration not stated),,> 100 µM,
CCN(CC)CCn1c(=O)c2ccccc2n2c3c(=O)n(C)c(=O)n(C)c3nc12,,18.8 µM,
COC(=O)[C@](NC(=O)OCc1ccccc1)([C@@H](C)Sc1ccc(C)cc1)C(F)(F)F,,> 100 µM,
COc1ccc(NCC#N)cc1,,> 100 µM,
Cc1nn(-c2ccccc2)c(-n2ccnc2)c1/C=N/Nc1nc(-c2ccc(Cl)c(Cl)c2)cs1,8.33 µM,60.8 µM,
CC1=C(C(=O)Nc2ccc(Cl)c(Cl)c2)C(c2ccccc2Cl)NC(=S)N1 (configuration not stated),8.13 µM,18.2 µM,
CCC(CC)COC(=O)[C@H](C)N[P@](=O)(OC[C@H]1O[C@@](C#N)(c2ccc3c(N)ncnn23)[C@H](O)[C@@H]1O)Oc1ccccc1,9.41 µM,> 100 µM,
c1ccc(C(c2ccccc2)c2ccncc2)cc1,,> 100 µM,
COC(=O)C(C(=O)C(=O)Nc1ccc(Br)cc1)c1nc2ccc(Cl)cc2[nH]c1=O (configuration not stated),,> 100 µM,
COc1cc(-c2cc(/C=C3\C(=O)Nc4ccc(Cl)cc43)[nH]n2)cc(OC)c1OC,8.62 µM,> 100 µM,
COC(=O)C(Cc1nc2ccc(Cl)cc2[nH]c1=O)/C(=N/O)C(=O)Nc1cccc(Cl)c1C (configuration not stated),,> 100 µM,
O=C(CC1(O)C(=O)Nc2ccc([N+](=O)[O-])cc21)c1ccc2ccccc2c1 (configuration not stated),,> 100 µM,
CC(=O)c1c(-c2ccco2)c(C#N)c(=S)n(C2OC(CO)C(O)C(O)C2O)c1-c1ccccc1 (configuration not stated),,> 100 µM,
CN1CCN(Cc2ccc(NC(=O)c3nc4ccc5[nH]ncc5c4c4c3CCCC4)cc2C(F)(F)F)CC1,0.793 µM,1.48 µM,
